From PubChem BioAssay AID485364 (National Center for Advancing Translational Sciences (NCATS), 2010)
About 11,000 (3.1%) of roughly 360,000 compounds were called active. The shares of active, inactive and inconclusive entries below differ from those in the screen. Calls come from the whole dose curve; as a rule, active = well fitted inhibition curve with a large enough effect; inconclusive = small, poorly fitted or top-dose-only effect; inactive = no such curve, though single readings can be large or run the other way. Potencies of inconclusive entries are left out as doubtful fits.

Molecular target: Schistosoma mansoni thioredoxin glutathione reductase (TGR) (UniProt Q962Y6)
Experiment: qHTS Assay for the Inhibitors of Schistosoma Mansoni Peroxiredoxins; note: nearly all actives have a fitted effect of over 60% in size
Settings: purified TGR, DTNB reduction, TNB absorbance 405 nm; series mostly up to 114 µM
Method in brief: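 TGR 20 nM + NADPH 100 uM (dispensed conc.), cpd preinc 15 min RT; start with NADPH (500 uM addition) then DTNB (15 mM addition). Kinetic TNB absorbance, 405 nm filter. Four-parameter Hill fit across titration.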
Potency is the fitted concentration of half-maximal effect; tags give direction and shape of the fitted curve.

| Compound | Potency |
| --- | --- |
| O=[N+]([O-])c1cc(-c2ccc(/C=N/c3nc4ccccn4c3-c3ccco3)o2)ccc1Cl | inconclusive [inhibitor, partial curve] |
| CCOC(=O)c1ccc(NC(=O)CN2CCN(C(=O)c3ccco3)CC2)cc1 | inconclusive [inhibitor, partial curve, poor fit] |
| Cc1ccc(Cn2ncc3c(N4CCN(Cc5ccc(Cl)cc5)CC4)ncnc32)cc1 | inconclusive [inhibitor, partial curve] |
| O=C(CCN1CCN(CCO)CC1)Nc1ccc(OCc2ccccc2)cc1 | inconclusive [inhibitor, single point] |
| O=C(O)CSc1c2c(nc3cc(C(=O)N4CCOCC4)ccc13)CCCC2 | inactive |
| Cc1ccc(N/N=C(\Cc2nc3ccccc3[nH]2)c2ccccc2)cc1 | active: 39.8 µM |
| COc1cc(Cl)c(C)cc1NC(=O)CSc1nnc(-c2ccccn2)n1Cc1ccco1 | inconclusive [inhibitor, partial curve] |
| Cc1ccc(C)c2[nH]c(=O)c(CCNC(=O)c3ccco3)cc12 | inconclusive [inhibitor, partial curve] |
| COc1ccc(/C=C/C(=O)OCC(=O)Nc2ccc3c(c2)OCO3)cc1 | inactive |
| O=C(NNC(=S)NCc1ccco1)c1cccs1 | inactive |
| Cc1noc(/C=C/c2ccco2)c1S(=O)(=O)N1CCC(C(=O)NCc2ccco2)CC1 | inconclusive [inhibitor, single point] |
| CCN(CC)C(=O)Nc1ccc2c(c1)N(Cc1ccccc1)C(=O)c1ccccc1S2 | inactive |
| Cc1ccc(-c2nn3c(C)nnc3s2)cc1NC(=O)c1ccc(-c2cccc(Cl)c2)o1 | inconclusive [inhibitor, full curve] |
| Cc1cccc2[nH]c3c(N4CCN(C(=O)c5ccco5)CC4)ncnc3c12 | inconclusive [inhibitor, partial curve] |
| CC(=O)n1cc(N(C(=O)CCl)c2ccccc2)c2ccccc21 | active: 0.501 µM |
| O=C(Nc1nnc(SCC(=O)N2CCCC2)s1)C1CC(=O)N(c2ccc(F)cc2)C1 (centres undefined) | inconclusive [inhibitor, partial curve] |
| CCCCCC(=O)NCc1c(C(F)(F)F)nn(C)c1N1CCOCC1 | inconclusive [inhibitor, single point] |
| CCCOc1ccc(OCCOCCN2CCc3ccccc3C2)cc1 | inactive |
| CC1=CC(c2ccccc2)n2nc(N3C(=O)C4CC=CCC4C3=O)nc2N1 (centres undefined) | inconclusive [inhibitor, partial curve] |
